# Some of the results follow. The source does not settle which construct or isoform was used.
# Target: GST-SBP-ILF3 (Homo sapiens) (UniProt Q12906)
# Assay: targeted RNA Bind-n-Seq
# Conditions: RBNS binding buffer: 25 mM Tris pH 7.5, 150 mM KCl, 3 mM MgCl2, 0.1% Tween, 0.5 mg/mL BSA, 1 mM DTT; 27 nM protein, 750 pM RNA pool; temperature not stated; high values mean tight binding; sequences stand for … in GGGUAAAAGCGAGGUGAA…CGGGACAAGUAUUAUGGG
row,Sequence,binding signal (log2 fold change)
1,UUUUUUUUUUGAGAGGGCGUCCUUCUCCAG [tttttgagapaired],0.876
2,UUUUUUUUUUGAGAUCGUGACGAUCUCCAG [tttttgagapaired],0.225
3,UUUUUUUUUUGAGAGGGGAACCCUCUCCAG [tttttgagapaired],0.201
4,GUGUGUUGUGUUGGCGUCUAACACAGCGCG [gtspaired],-0.681
5,UUUUUUUUUUGAGAGGGGACCCUUCUCCAG [tttttgagapaired],0.103
6,UUUUUUUUUUGAGAGGGAACCCCUUUCCGG [tttttgagapaired],-0.0851
7,GUGUGUGGUGUUGGCACCUAACACCAUACG [gtspaired],-0.581
8,UUUUUUUUUUGAGAACGAAGCGUUCUCCUA [tttttgagapaired],0.00319
9,GUGUGUUGUGUUGGUAUCUAACACAACGCG [gtspaired],-0.479
10,UUUUUUUUUUGAGAUGGUAACUAUCUCCUG [tttttgagapaired],0.394
11,UUUUUUUUUUGAGAUGGCAUCCAUCUCCAG [tttttgagapaired],0.316
12,UUUUUUUUUUGAGAACGAACCGUUCUCCAG [tttttgagapaired],0.139
13,UUUUUUUUUUGAGAGGGAGUCCCUCUUCUA [tttttgagapaired],0.738
14,UUUUUUUUUUGAGAUGGCAACCAUCUCCUA [tttttgagapaired],0.325
15,UUUUUUUUUUGAGACUGGGGCAGUUUCCGG [tttttgagapaired],0.921
16,UUUUUUUUUUGAGACCGUGGCGGUCUUCUA [tttttgagapaired],0.479
17,GUUGGUGGUGUUGGCGUCUAACACCAUCAA [gtspaired],-0.549
18,GGUGUUGGUGUUGGAUCCUAACACCGACGC [gtspaired],-0.585
19,GUGUGGUGUGUUGGAGCCUAACACACCGCG [gtspaired],-0.509
20,UUUUUUUUUUGAGAUGGAAACUAUCUCCUA [tttttgagapaired],0.089
21,GUGUGUUGUGUUGGCUUCUAACACAGCACA [gtspaired],-0.611
22,UUUUUUUUUUGAGAUGGAUGCCGUCUCCAG [tttttgagapaired],0.582
23,UUUUUUUUUUGAGAUGGAUGCCAUCUUCUG [tttttgagapaired],0.215
24,GGUUGGUGUGUUGGUACCUAACACAUCAGC [gtspaired],-0.9
25,UUUUUUUUUUGAGACUGCAGCAGUUUCCUA [tttttgagapaired],0.63
26,GUUGUGUGUGUUGGUAUCUAACACACGCAG [gtspaired],-1.01

row,Sequence,binding signal (log2 fold change)
1,UUUUUUUUUUGAGACCGGAGCGGUCUUCUA [tttttgagapaired],0.671
2,UUUUUUUUUUGAGAUGGCAACCAUCUCCUG [tttttgagapaired],0.57
3,GGUUGGUGUGUUGGUUCCUAACACAUCAGC [gtspaired],-0.504
4,UUUUUUUUUUGAGAUGGGCACCAUCUCCAG [tttttgagapaired],0.377
5,UUUUUUUUUUGAGAGGGGAUCCCUCUCCUA [tttttgagapaired],0.138
6,UUUUUUUUUUGAGAGUGUAACACUCUUCUG [tttttgagapaired],0.0948
7,GUGUGUGGUGUUGGCGCCUAACACCACAUA [gtspaired],-0.326
8,GUGUGGUGUGUUGGAGUCUAACACAUCGCG [gtspaired],-0.568
9,UUUUUUUUUUGAGAUGGGAACUAUCUCCGG [tttttgagapaired],0.169
10,UUUUUUUUUUGAGACGGAAUCUGUCUCCAG [tttttgagapaired],0.414
11,GUGUGUUGUGUUGGCCCCUAACACAGCACA [gtspaired],-0.219
12,GUGUGUGGUGUUGGUGUCUAACACCAUACG [gtspaired],-1.12
13,GGUUGGUGUGUUGGUGCCUAACACACUAAC [gtspaired],-0.185
14,UUUUUUUUUUGAGAACGUGACGUUCUCCUA [tttttgagapaired],-0.0796
15,UUUUUUUUUUGAGACGGCGGCCGUCUCCAG [tttttgagapaired],1.07
16,UUUUUUUUUUGAGAGCGGAGCGCUCUCCAG [tttttgagapaired],-0.043
17,UUUUUUUUUUGAGAGGGAGUCCUUCUCCAG [tttttgagapaired],0.494
18,GUUGUGUGUGUUGGCUUCUAACACACGCGA [gtspaired],-0.658
19,GUUGGUGGUGUUGGCCUCUAACACCGCCAG [gtspaired],-0.471
20,GGUGUUGGUGUUGGUCCCUAACACCAGCGC [gtspaired],-0.657
21,GUGGUGUGUGUUGGCCUCUAACACAUACUA [gtspaired],-0.79
22,UUUUUUUUUUGAGAGGGUUUCCCUCUCCAG [tttttgagapaired],0.0118
23,UUUUUUUUUUGAGACGGCUGCCGUUUCCAG [tttttgagapaired],0.73
24,UUUUUUUUUUGAGAAGGAACCCUUCUCCAG [tttttgagapaired],-0.255
25,UUUUUUUUUUGAGAGGGGGGCCCUCUCCAG [tttttgagapaired],0.781
26,UUUUUUUUUUGAGAGCGAGGCGUUCUUCUA [tttttgagapaired],0.652

row,Sequence,binding signal (log2 fold change)
1,UUUUUUUUUUGAGAUGGUGGCCAUCUCCUA [tttttgagapaired],0.683
2,UUUUUUUUUUGAGAGGGAUCCCCUCUCCAG [tttttgagapaired],0.282
3,UUUUUUUUUUGAGAUCGGAACGAUUUCCAG [tttttgagapaired],0.115
4,UUUUUUUUUUGAGACUGCGUCAGUCUUCUA [tttttgagapaired],0.313
5,GGUGGUUGUGUUGGAACCUAACACAGCCGC [gtspaired],-0.576
6,UUUUUUUUUUGAGAGGGGGUCCUUCUCCAG [tttttgagapaired],0.801
7,GUGGUGUGUGUUGGAUUCUAACACAUACUA [gtspaired],-0.715
8,GUGGUGUGUGUUGGAGUCUAACACAUACCG [gtspaired],-0.761
9,UUUUUUUUUUGAGAGGGUGCCCCUCUCCUA [tttttgagapaired],0.21
10,UUUUUUUUUUGAGAACGGUGCGUUCUUCUG [tttttgagapaired],0.563
11,UUUUUUUUUUGAGACGGGCACCGUCUCCGG [tttttgagapaired],0.491
12,UUUUUUUUUUGAGACGGUCUCCGUCUCCUA [tttttgagapaired],0.464
13,UUUUUUUUUUGAGACUGAGCCAGUCUUCUG [tttttgagapaired],0.301
14,GUGUGUGGUGUUGGAAUCUAACACCAUACG [gtspaired],-0.727
15,UUUUUUUUUUGAGAACGAUCCGUUCUCCUA [tttttgagapaired],0.0328
16,UUUUUUUUUUGAGAACGAAGCGUUCUCCGG [tttttgagapaired],-0.202
17,UUUUUUUUUUGAGAGCGGUACGCUCUUCUG [tttttgagapaired],0.125
18,UUUUUUUUUUGAGACCGACACGGUCUCCUA [tttttgagapaired],0.411
19,UUUUUUUUUUGAGACGGGAUCCGUCUCCGG [tttttgagapaired],0.403
20,UUUUUUUUUUGAGAGCGGAGCGCUCUUCUA [tttttgagapaired],0.332
21,UUUUUUUUUUGAGACGGCUUCCGUCUUCUA [tttttgagapaired],0.551
22,UUUUUUUUUUGAGACCGGGCCGGUCUCCAG [tttttgagapaired],0.644
23,UUUUUUUUUUGAGAGCGGGCCGCUCUUCUA [tttttgagapaired],0.344
24,UUUUUUUUUUGAGACGGUAGCCGUCUCCAG [tttttgagapaired],0.505
25,UUUUUUUUUUGAGACCGUAACGGUCUCCUG [tttttgagapaired],0.382
26,UUUUUUUUUUGAGAGGGCAGCCCUCUCCUG [tttttgagapaired],1.22

row,Sequence,binding signal (log2 fold change)
1,UUUUUUUUUUGAGACCGCUGCGGUCUCCGG [tttttgagapaired],0.875
2,UUUUUUUUUUGAGACUGCAGCAGUCUUCUA [tttttgagapaired],0.441
3,GUUGGUGGUGUUGGCAUCUAACACCGCCGA [gtspaired],-0.15
4,UUUUUUUUUUGAGACCGCAUCGGUCUUCUA [tttttgagapaired],0.43
5,GUGUGUUGUGUUGGUACCUAACACAGCACG [gtspaired],-0.727
6,UUUUUUUUUUGAGAGCGUGGCGCUCUUCUA [tttttgagapaired],0.506
7,GGUUGGUGUGUUGGCGUCUAACACAUCAGC [gtspaired],-0.636
8,UUUUUUUUUUGAGAUGGGAUCCGUCUCCUA [tttttgagapaired],0.184
9,UUUUUUUUUUGAGAUGGCGGCCAUCUCCUG [tttttgagapaired],0.868
10,UUUUUUUUUUGAGACUGCGACAGUUUCCUG [tttttgagapaired],0.78
11,UUUUUUUUUUGAGAGCGAUGCGCUCUCCGG [tttttgagapaired],0.261
12,UUUUUUUUUUGAGACGGAUACCGUUUCCGG [tttttgagapaired],0.469
13,UUUUUUUUUUGAGAACGUACCGUUCUCCAG [tttttgagapaired],0.512
14,UUUUUUUUUUGAGACUGAUCCAGUCUCCUA [tttttgagapaired],0.192
15,UUUUUUUUUUGAGAGGGACUCCUUCUCCAG [tttttgagapaired],0.00867
16,UUUUUUUUUUGAGACCGGAGCGGUCUCCAG [tttttgagapaired],0.726
17,UUUUUUUUUUGAGAACGAACCGUUCUCCGG [tttttgagapaired],0.0448
18,GUGUGUGGUGUUGGAGUCUAACACCAUACA [gtspaired],-0.404
19,GUGUGUGGUGUUGGCUCCUAACACCGCAUA [gtspaired],-0.233
20,UUUUUUUUUUGAGACUGAGGCAGUCUCCAG [tttttgagapaired],0.351
21,UUUUUUUUUUGAGACCGAUUCGGUCUCCGG [tttttgagapaired],0.243
22,GUGUGUUGUGUUGGUGUCUAACACAACGCG [gtspaired],-0.986
23,UUUUUUUUUUGAGACGGCUCCCGUCUCCAG [tttttgagapaired],0.894
24,UUUUUUUUUUGAGAGGGAUACCCUCUUCUG [tttttgagapaired],0.375

# Reference: PMC5892938
